Assay results as given in PubChem BioAssay AID445 (National Center for Advancing Translational Sciences (NCATS), 2006).
Hit rate of the full screen: of about 110,000 compounds, about 40 (0.04%) were called active. The inconclusive results got no clear call from the source; some entries with a clear call stand among them for comparison. The call rests on the fitted dose curve; in most records, active means well fitted curve in the direction sought with a large enough effect in the signal ratio (not every such curve was filed as active); inconclusive means small, poorly fitted or top-dose-only effect, or a change in a side signal; inactive means flat fitted curve, though single readings scatter; the % refers to the signal ratio. Potencies of inconclusive entries are doubtful fits and often do not repeat.

Assay: IkB Signaling;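 on IkBa stabilization activation: 0% = basal untreated cells and 100% = reference inhibitor full response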
Conditions: ABC-DLBCL IkBa-CBG/CBR dual luciferase ratio (green luciferase fused to IkBa over red control in OCI-Ly3 lymphoma cells), 4 h; IkBa stabilization activation: at 57.1 µM (top of the series), scaled: untreated 0%, proteasome inhibitor 100% unless noted
Summary of the method: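 In this assay, an IκBα–CBG68 fusion accumulates when IKK-driven degradation is blocked; native CBR normalizes for cell number. OCI-Ly3 cells were treated 4 h with compound and doxycycline, then green and red light read after Chroma-Glo addition.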
Potency means the concentration at half of the fitted maximal effect.

| SMILES | IkBa stabilization activation | Potency |
| --- | --- | --- |
| CCc1ccccc1N(C)C(=O)c1cn(-c2cccc(OC)c2)c(=O)c2ccccc12 | inactive: -2.44% |  |
| O=C(Nc1ccc(F)cc1F)C1CCN(S(=O)(=O)c2ccc3[nH]c(=O)ccc3c2)CC1 | inconclusive: 9.26% [signal activator] |  |
| COc1cc(NC(=O)CCc2nc3cccnc3n2Cc2cccs2)cc(OC)c1OC | inconclusive: 4.37% [signal inhibitor] |  |
| CCc1ccc(OCc2nc(-c3ccc(OC)c(OC)c3)no2)c(Br)c1 | inconclusive: 5.53% [signal inhibitor] |  |
| O=C(CCc1nc2cccnc2n1-c1ccccc1)Nc1ccc(Cl)c(Cl)c1 | inconclusive: 4.83% [signal inhibitor] |  |
| CN(C)c1ccc(C2C=C(c3ccccc3)Nc3nnnn32)cc1 (configuration not stated) |  | inconclusive: 15.8 µM [signal inhibitor, partial curve] |
| COc1ccc(CNC(=O)CCNS(=O)(=O)c2cccc3nsnc23)cc1 | inconclusive: 5.01% [signal inhibitor] |  |
| CCOc1ccccc1CNC(=O)c1ccc(NC(=O)N2CCSc3ncccc32)cc1 | inconclusive: 3.71% [signal inhibitor] |  |
| Fc1ccc(-n2ncc3c(N4CCC(Cc5ccccc5)CC4)ncnc32)cc1 | inactive: -0.342% |  |
| CN(C)c1ccc(N=Cc2ccco2)cc1 | inconclusive: 5.94% [signal inhibitor] |  |
| COc1ccc(OC)c(CNC(=O)Cn2nc(C)c3nn(-c4ccc(Cl)cc4)c(C)c3c2=O)c1 | inconclusive: 0.236% [signal inhibitor] |  |
| COc1ccc2oc(=O)c(-c3cn4c(n3)sc3cc(OC)ccc34)cc2c1 | inconclusive: 6.91% [signal inhibitor] |  |
| COc1ccc2c(Sc3ccccc3)c(C(=O)NCCCN3CCCCC3)[nH]c2c1 | inactive: -1.69% |  |
| Clc1ccc(N2CCN(c3ncnc4c3cnn4-c3ccccc3)CC2)cc1Cl | inconclusive: -1.03% [signal inhibitor] |  |
| Cc1ccc(NCc2nnc(SCC(=O)N(Cc3ccccc3)C(C)(C)C)o2)c(C)c1 | inconclusive: 7.29% [signal inhibitor] |  |
| Cc1noc(C)c1-c1nc(NCc2ccccc2)c2ccccc2n1 | inactive: 1.77% [at 11.4 µM, scaled: untreated 0%, proteasome inhibitor 100%] |  |
| COc1ccc(NC(=O)c2cc(S(=O)(=O)N3CCCCCC3)cn2C)cc1Cl | inconclusive: 3.04% [signal inhibitor] |  |
| COc1ccc(N(Cc2cccs2)C(=O)c2ccc(C(C)(C)C)cc2)cc1 | inconclusive: -0.446% [signal inhibitor] |  |
| COc1cc2[nH]c(=O)n(Cc3ccc(C(=O)N4CCN(c5cc(Cl)ccc5C)CC4)cc3)c(=O)c2cc1OC | inconclusive: 7.43% [signal inhibitor] |  |
| O=C(NCC(c1ccc2c(c1)OCO2)N1CCOCC1)C(=O)Nc1ccc(F)cc1F (configuration not stated) |  | inconclusive: 3.16 µM [signal inhibitor, full curve] |
| CCN(CC)COC(=S)S | inactive: 1.62% [at 11.4 µM, scaled: untreated 0%, proteasome inhibitor 100%] |  |
| CCOC(=O)CSc1nc2ccc(NC(C)=O)cc2s1 | inconclusive: 9.06% [signal inhibitor] |  |
| FC(F)(F)c1ccccc1-c1nc(Nc2ccncc2)c2ccccc2n1 | inactive: 1.27% [at 11.4 µM, scaled: untreated 0%, proteasome inhibitor 100%] |  |

| SMILES | IkBa stabilization activation | Potency |
| --- | --- | --- |
| Cc1cccc(CCNC(=O)c2cnc3c(C)cccn3c2=O)c1 | inconclusive: 3.38% [signal inhibitor] |  |
| CC(C)(C)c1ccc(S(=O)(=O)c2cn(CC(=O)Nc3ccccc3)c3ccccc3c2=O)cc1 | inconclusive: 2.2% [signal inhibitor] |  |
| Cc1ccc(CNC(=O)c2ccc3c(c2)N(Cc2ccccc2)C(=O)c2ccccc2S3(=O)=O)cc1 | inconclusive: 4.71% [signal inhibitor] |  |
| O=c1c(-c2ccc(F)cc2)nc2cnc(N3CCOCC3)nc2n1Cc1cccs1 | inactive: 1.3% [at 11.4 µM, scaled: untreated 0%, proteasome inhibitor 100%] |  |
| O=C(CCC1N=C2c3ccccc3N=C(SCc3ccccc3F)N2C1=O)NCCc1ccccc1 (configuration not stated) | inconclusive: 2.21% [signal inhibitor] |  |
| NCCC[C@@H](CC(=O)N[C@@H]1CCNC[C@H]1C(=O)N[C@H](CC(=O)N[C@@H](CCC(=O)O)CC(=O)O)Cc1ccccc1)NC(=O)C[C@H](CO)NC(=O)[C@@H]1CNCC[C@H]1N | inactive: 3.34% |  |
| CCn1c(SCc2ccc(F)cc2Cl)nnc1-c1nonc1NC(C)=O | inconclusive: 1.19% [signal inhibitor] |  |
| CCOCC(=O)Nc1nc2ccc(OC)cc2s1 |  | inconclusive: 25.1 µM [signal inhibitor, single point] |
| Cc1cc2c(cc1C)NC(CC(=O)Nc1cccc(Cl)c1)C(=O)N2 (configuration not stated) | inconclusive: 10.3% [signal inhibitor] |  |
| C=CCc1cccc2cc(C(=O)NCCc3c(C)[nH]c4c(C)cccc34)c(=O)oc12 | inconclusive: 2.55% [signal inhibitor] |  |
| COc1ccc(-n2c(SCC(=O)Nc3ccc4c(c3)OCO4)nc3ccccc3c2=O)cc1 | inactive: -1.57% |  |
| CCN(CC)c1ccc(NC(=O)CCc2nc3cccnc3n2Cc2cccs2)c(C)c1 | inconclusive: 3.39% [signal inhibitor] |  |
| O=C(NCC(c1ccc2c(c1)OCO2)N1CCOCC1)C(=O)Nc1ccccc1 (configuration not stated) | inconclusive: 2.71% [signal inhibitor] |  |
| CNc1ccc(-c2nc(-c3ccco3)no2)cc1[N+](=O)[O-] | inconclusive: -0.11% [signal inhibitor] |  |
| CCOC(=O)N1CCC(NC(=O)c2cnn(-c3ccc(F)cc3F)c2C2CCN(C(=O)OC(C)(C)C)CC2)CC1 | inconclusive: 2.77% [signal inhibitor] |  |
| O=C(COC(=O)c1ccc(S(=O)(=O)N2CCOCC2)cc1)Nc1nc(-c2ccccc2)cs1 | inactive: -0.982% |  |
| Cc1ccccc1OCC(=O)Nc1ccc2nc(SCC(=O)N3CCc4ccccc43)sc2c1 | inactive: 0.223% |  |
| O=C(C1CCCN(S(=O)(=O)c2ccc(Br)s2)C1)N1CCN(c2cccc(Cl)c2)CC1 (configuration not stated) | inconclusive: 8.23% [signal inhibitor] |  |
| CCOC(=O)CN(C(=O)CSc1nnc(-c2ccc(OC)c(OC)c2)o1)c1ccc(F)cc1 | inconclusive: 3.98% [signal inhibitor] |  |
| COc1ccc(-c2nc3cnc(Oc4cccc(Cl)c4)nc3n(CCC#N)c2=O)cc1 | inactive: -0.898% [at 11.4 µM, scaled: untreated 0%, proteasome inhibitor 100%] |  |
| O=C(c1ccc(C23CC4CC(CC(C4)C2)C3)o1)N1CCOCC1 | inconclusive: 1.68% [signal inhibitor] |  |
| Cc1ccc(CNc2ncnc3c2cnn3-c2ccc(Cl)cc2)cc1 | inactive: -4.93% |  |
| COc1ccccc1C1Nc2c(sc3nc(C)cc(C)c23)C(=O)N1c1ccccc1 (configuration not stated) | inconclusive: 5.35% [signal inhibitor] |  |

| SMILES | IkBa stabilization activation | Potency |
| --- | --- | --- |
| COc1ccc(OCC(=O)Nc2cc(-c3nc4ccccc4s3)ccc2C)cc1 | inactive: 1.92% |  |
| Cc1ccc(NC(=O)C(C)Sc2nc(-c3ccccc3)c(C#N)c(=O)[nH]2)c(C)c1 (configuration not stated) | inconclusive: 1.23% [signal inhibitor] |  |
| Nc1ccc(-c2nc3c(Cl)c(N)ccc3[nH]2)cc1 | inactive: 3.68% |  |
| O=c1c(N2CCc3ccccc3C2)csc2ccc(Cl)cc12 |  | inconclusive: 31.6 µM [signal inhibitor, single point] |
| CC(C)Cc1nn2c(=O)cc(COC(=O)c3ccc(NC(=O)CCc4ccccc4)cc3)nc2s1 | inactive: 1.13% |  |
| CC(C)c1cnc2c(c1SCC(=O)N1CCCCC1)c(=O)n(C)c(=O)n2C | inconclusive: 1% [signal inhibitor] |  |
| Cc1noc(C)c1C(=O)Nc1nnc(-c2ccccc2)s1 |  | inconclusive: 20 µM [signal inhibitor, partial curve] |
| CCOc1cc(CN2CCN(S(=O)(=O)c3ccc(C)cc3)CC2)ccc1OC | inactive: -1.29% |  |
| COc1ccc(/C=C/C(=O)Nc2sc(C)c(C)c2C(=O)O)cc1 | inactive: 96.4% |  |
| CC(=O)Nc1ccc(SCC(=O)c2cc(C)n(Cc3cccs3)c2C)cc1 | inactive: 0.436% |  |
| O=S(=O)(c1ccc2nc(-c3ccco3)c(-c3ccco3)nc2c1)N1CCOCC1 | inconclusive: 3.09% [signal activator] |  |
| CCc1ccc2c(c1)NC(c1ccc(C)cc1)=NC(c1cccs1)=N2 | inactive: -0.849% |  |
| CC(C)(C)OC(=O)N1CCC(c2c(C(=O)O)cnn2-c2ccc(Cl)cc2)CC1 | inconclusive: 2.25% [signal inhibitor] |  |
| CCn1c(=O)sc2cc(NS(=O)(=O)c3ccc(C)cc3)ccc21 | inconclusive: 19.3% |  |
| CCOC(=O)N1CCc2c(sc3c2c(=O)n(Cc2ccccc2)c(=O)n3CC(=O)Nc2ccc(C)cc2C)C1 | inactive: 2.27% |  |
| Cc1cc(C)cc(Nc2cc(C(=O)NC3CCC(C)CC3)c3ccccc3n2)c1 (configuration not stated) | inactive: -2.59% |  |
| CCCN1C(C(=O)c2ccccc2)=C(OC(=O)c2ccc(OC)cc2)c2ccccc2S1(=O)=O | inconclusive: 0.674% [signal inhibitor] |  |
| CC(C)(C)NCC(O)COc1ccccc1C(C)(C)C (configuration not stated) | inactive: 1.89% |  |
| CN(Cc1ccc(F)cc1)S(=O)(=O)c1nnc(NC(=O)c2ccccc2Cl)s1 | inconclusive: -0.402% [signal inhibitor] |  |
| Cn1nnnc1SCCCNCc1ccc(-c2ccc(F)c(Cl)c2)o1 | inconclusive: -0.374% [signal inhibitor] |  |
| CCc1nc(-c2cc(S(=O)(=O)N3CCN(c4ccccc4F)CC3)ccc2OC)no1 | inactive: 1.05% |  |
